Series [1] has as its system hair cells in zebrafish lateral line neuromasts. The following applies: 5-dpf larvae. How it is done: The experiments were performed with 5-dpf larval zebrafish of the *AB wild-type strain. Dose-response studies were performed to find the cisplatin concentration at which most of the hair cells in each neuromast were killed in the absence of a protective compound and at the same DMSO concentration (<0.2%).
Experiments were performed in 24-well plates with 5 fish per well in volumes of 1-2 mL. Fish were incubated with 5 μM and stained with 0.005% DASPEI vital dye for 15 minutes. After two washes with egg water, fish were visualized in an epiflourescence microscope. […] Results were plotted as percent survival of hair cells in the cisplatin-treated fish relative to the untreated fish (FIG. 4A-E).

Series [2] deals with hair cells in mouse cochlear explants. To be noted: 24 h.
In series [3] the target is Cdk2 immunoprecipitated from HEI-OC cells (Mus musculus, UniProt P97377). Briefly: CDK2 kinase activity in vitro, phosphorylation of histone H1. Type of series: biochemical. The following applies: increasing doses, with or without cisplatin treatment of cells.
Another series relates to HEI-OC1 cells. To be noted: mouse, 22 h.
The test system of series [4] is outer hair cells (OHCs) in mouse cochlear explants. As to the kind of experiment: Protection against cisplatin-induced hair cell loss in neonatal (P3) mouse cochlear explants. Type of series: cell-based. To be noted: for OHC survival: 24 hr cisplatin co-treatment.
The subject of series [5] is hair cells in zebrafish lateral line neuromasts. Briefly: Protection against cisplatin-induced hair cell loss in zebrafish lateral lines in vivo. To be noted: 5 μM cisplatin.
Series [6] concerns mouse medulloblastoma neurosphere lines and human neuroblastoma cell lines. As to the kind of experiment: Interference with cisplatin's killing function in tumor cell lines (Cell Titer Glo). The following applies: 48 hours, cisplatin 23 μM, compound 3×IC50. Type of series: cell-based. How it is done:
FIG. 11 addresses interference with cisplatin's killing function in tumors. Four neurosphere lines derived from mouse medulloblastoma (MB) and two human neuroblastoma (NB) cell lines were tested. HEI-OC1 cell line was tested as controls.
Table 1 lists the top 18 compound hits in the screen in terms of high potency and low toxicity. The top ten compounds were further evaluated by a viability assay (Cell Titer Glo, Promega) in medulloblastoma neurosphere cell lines and neuroblastoma cell lines to test whether they inhibit the ability of cisplatin to kill the tumor cells. The majority had no antagonistic effect on cisplatin's antitumor activity (data not shown) and are therefore safe to use systemically together with cisplatin during chemotherapy to protect against cisplatin-induced hearing loss.
(In general: In ATP-based viability assays light output follows the ATP content of the culture.)

Another series deals with CDK2 (Homo sapiens, UniProt P24941). The following applies: ATP-competitive; cited from earlier work.

Each structure is given as a SMILES string. A value given as a limit tells only on which side of the number the result lay.

As usually defined, the IC50 is the concentration that inhibits the measured activity by half. With `O=C1Cc2c([nH]c3ccc(Br)cc23)-c2ccccc2N1` [Compound 4, Kenpaullone], the “Zebrafish LD50” value in series [1] was below 90 µM. Besides, in series [2], the Explant Cisplatin LD50 was above 30 µM and the “Mouse Explant LD50” value is above 30 µM. In addition, the CDK2 kinase activity result in series [3] was “inhibits CDK2 kinase activity”. In the series with HEI-OC1 cells, the “HEI-OC1 LD50” value was above 40 µM. In addition, the “protection against cisplatin-induced hair cell loss in cochlear explants” value in series [4] (50 μM cisplatin, 24 hrs) is given as “protect against cisplatin-induced hair cell loss”. The OHC survival in series [4] amounted to 100%. For the same compound, the IC50 in series [4] (P3 cochlear explants, 50 μM cisplatin, 24 hrs, read-out: Mouse Explant IC50) was around 150 nM. The “comparison with germline CDK2 knockout explants” value in series [4] (cisplatin plus kenpaullone, WT and CDK2 KO cochleae) was “phenocopies CDK2 knockout resistance to cisplatin ototoxicity”. Further, the “protection of zebrafish neuromasts against cisplatin-induced hair cell loss” value in series [5] was “significant protection”. Further, the concentration for half-maximal inhibition (IC50) in series [5] (Danio rerio, 5-dpf larvae) was around 30000 nM.

For `NS(=O)(=O)c1ccc(NN=C2C(=O)Nc3cc(Br)ccc32)cc1` [Compound 12, CDK2 inhibitor II], the “interference with cisplatin anti-tumor activity” value in series [6] is “no interference in all tumor cell lines”. For the same compound, the IC50 at CDK2 is 60 nM. Moreover, in series [1], the “Zebrafish LD50” value was above 50 µM. For the same compound, in series [2], the “Mouse Explant LD50” value was above 12 µM. Also, in the series on HEI-OC1 cells, the “HEI-OC1 LD50” value was above 40 µM. Further, the “protection against cisplatin-induced hair cell loss in cochlear explants” value in series [4] (50 μM cisplatin, 24 hrs) is on record as “protect against cisplatin-induced hair cell loss”. Moreover, the OHC survival in series [4] amounted to 100%.

These data come from patent US11446308B2, “Methods and compositions for the prevention and treatment of hearing loss” (St. Jude Children's Research Hospital, priority 2015, dated 2022).
